Experimental findings from PMC12136788 are described below.

To fix the notation:
T1: UNK ZnF1-6 (called full-length) (human, UniProt Q9C0B0 30-357)
T1 sequence: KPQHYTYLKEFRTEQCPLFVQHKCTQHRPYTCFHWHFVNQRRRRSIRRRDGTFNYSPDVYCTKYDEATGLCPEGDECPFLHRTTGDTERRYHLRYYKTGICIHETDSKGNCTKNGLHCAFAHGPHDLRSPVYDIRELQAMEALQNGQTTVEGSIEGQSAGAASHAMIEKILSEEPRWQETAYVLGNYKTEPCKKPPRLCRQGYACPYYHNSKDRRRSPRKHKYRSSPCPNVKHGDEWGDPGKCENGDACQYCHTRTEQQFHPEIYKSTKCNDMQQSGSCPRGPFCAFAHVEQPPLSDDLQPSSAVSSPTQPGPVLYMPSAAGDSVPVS

B1: ENSG00000198589:be:win_7951|CDS|ENSG00000198589|bound_else_gene|NA|bound_elsewhere_windowed (ssRNA)
RNA: GGGAGUUCUACAGUCCGACGAUCCGUGAUGCAACUCUUUUGCUGUGGUAUUGGAAUGGAAAAUGCAGUGGGAUUGGAGAUAACCCAGGCAGUGAGACUGCUGCUCCUCGGGCCAUUUUGACCGGCCAUGACUAUGAGGUCACACAACAGAGGAUUGAGCAUCA
B2: chr8:23572142:23572248:+|3pUTR|ENSG00000147454|unk|FALSE|unique (ssRNA)
RNA: GGGAGUUCUACAGUCCGACGAUCCCUCCCUGGGCAGAAUGUAGCUUUUCUGCUUCACUGUGGCAGCCUCCUCCCUGGAUCCUUAGAUCCCAGAGGAGGGAAGAAAAUUUGCAGUGACUGAAAACAGUAAAAAAAAAAAAAAAACAACAGAGGAUUGAGCAUCA
B3: chr6:149811313:149811414:+|3pUTR|ENSG00000120265|msi1|FALSE|unique (ssRNA)
RNA: GGGAGUUCUACAGUCCGACGAUCUGUUUCUAAUUUGCUGCUGAUAAUGUAUAUGAACUUAACAUGCUGUGUAAGCUGUGUCCUAGUUCUUGAACAGUUUAUGCAGUGCUGCUUUGCCAAAUAAAGUUAAAAGUAAAAGAGGCACAACAGAGGAUUGAGCAUCA
B4: ENSG00000165280:stop:overlap|stop_codon|ENSG00000165280|stop_codon|NA|stop_codon (ssRNA)
RNA: GGGAGUUCUACAGUCCGACGAUCCCGAGGUCAUGAACUCUCUAGCAGUUACUAUGGAUGACUUCCGGUUUUCCCUCCUUUUCUAGUGGGCCUUGAGCCAGAGUAACCCAUCAGCACUGCGGGAAACCGUGGUAGAGGUGCCACCAACAGAGGAUUGAGCAUCA
B5: chr9:21227606:21228173:-|CDS|ENSG00000234829|control|control|control (ssRNA)
RNA: GGGAGUUCUACAGUCCGACGAUCGCAGACCUUCAAUCUCUUCAGCACAGAGGACUCAUCUGCUGCUUGGGAACAGAGCCUCCUAGAAAAAUUUUCCACUGAACUUUACCAGCAACUGAAUAACCUGGAAGCAUGUGUGAUACACAACAGAGGAUUGAGCAUCA
B6: ENSG00000107863:be:win_1901|CDS|ENSG00000107863|bound_else_gene|NA|bound_elsewhere_windowed (ssRNA)
RNA: GGGAGUUCUACAGUCCGACGAUCCAAAACCAUCAUUUAGCCAGAAAUCAUUUGUUUCUAUCAAAGACCAAAGACCAGUAAAUCACUUGCAUCAGAACAGUCUGUUGAAUCAGCAGACAUGGGUAAGGACUGACAGUGCCCCCGCAACAGAGGAUUGAGCAUCA
B7: ENSG00000173757:stop:overlap|stop_codon|ENSG00000173757|stop_codon|NA|stop_codon (ssRNA)
RNA: GGGAGUUCUACAGUCCGACGAUCACCAGGCCCCCUCCCCAGCUGUGUGUCCCCAGGCUCACUAUAACAUGUACCCACAGAAGUAGGUGGCAUUCUUGUGGGGGUCCACAGGGGAGGAACUGGGGGCUUGGCCCCAGGCUGGACCAACAGAGGAUUGAGCAUCA
B8: ENSG00000070961:be:win_951|CDS|ENSG00000070961|bound_else_gene|NA|bound_elsewhere_windowed (ssRNA)
RNA: GGGAGUUCUACAGUCCGACGAUCUGAGAAUCGCAACAAAGCAAAAGCCCAGGAUGGUGCAGCCAUGGAAAUGCAGCCAUUGAAGAGUGAAGAAGGUGGAGAUGGUGAUGAAAAAGAUAAAAAGAAAGCAAAUUUGCCAAAAAACAACAGAGGAUUGAGCAUCA
B9: chr16:3727831:3727932:-|CDS|ENSG00000005339|unk|FALSE|bound_elsewhere (ssRNA)
RNA: GGGAGUUCUACAGUCCGACGAUCCGUCUCACCCCAGACUGGUUCCCCCCACCCCGGACUCGCAGUCACCAUGGCCAGCUCCAUAGAUCAGGGACACUUGGGGAACCCCGAACAGAGUGCAAUGCUCCCCCAGCUGAACACCCCCAACAGAGGAUUGAGCAUCA
B10: chr4:7762510:7762611:-|3pUTR|ENSG00000196526|msi1|total|mutant (ssRNA)
RNA: GGGAGUUCUACAGUCCGACGAUCGUGCAAUAUUUCUUGGAGAAUUUGGAUGCCUAAGGCAUAAAGGAAAAAAACAGAGUUCACCGUUUGAGCUGGUAUUUACCCCCUGGGUUUAAAAAUCAGAUUAACUUCUUGGUCUCCCGGCAACAGAGGAUUGAGCAUCA
B11: chr10:92030311:92030412:+|3pUTR|ENSG00000095564|unk|total|mutant (ssRNA)
RNA: GGGAGUUCUACAGUCCGACGAUCAUAUAAGAUUGAAACUGUAAAAUAUAUGCAACUGUGUGUUAUUUGCCGGAAAUGGUCACCCGAAAGAGCAAAAGAUUAUUCAGGUAUACAGGUUUUUUUUCAUUGUUCCGGAUUUUAACUCAACAGAGGAUUGAGCAUCA
B12: chr2:32377587:32377702:+|CDS|ENSG00000115760|unk|total|mutant (ssRNA)
RNA: GGGAGUUCUACAGUCCGACGAUCGGUGAAAUGUCAGUAUAUCUCUGCUGUGGAUAAAGUUAUAUUUGUGGAUGAUUAUGCAGCCGGGUGCCGGAAGGACCUUAAUGGAAUCUUGUUGUCCGACACUGCUCUGCAAACUCCAGUCAACAGAGGAUUGAGCAUCA
B13: chr1:193029531:193029688:-|CDS|ENSG00000116750|unk|total|mutant (ssRNA)
RNA: GGGAGUUCUACAGUCCGACGAUCUUGAUAUCUUCACUUUUAUAUUUUACCGGUAAUUAAUAAUGCUUGUGCUACUCAAGCCACCGUGAGUGUGUUACUGAACUGUACCCACCAGGAUGUCCAUUCCGGCGAGACAUUAUCAGACAACAGAGGAUUGAGCAUCA
B14: chr11:48137134:48137235:+|CDS|ENSG00000149177|msi1|FALSE|unique (ssRNA)
RNA: GGGAGUUCUACAGUCCGACGAUCCACGUACUCCUACUGCCUUCUUAUUGAGAAGGCUGGAAAUUCCAGCAACGCAACACAAGUAGUCACGGACAUUGGAAUUACUGACGCUACAGUCACUGAAUUAAUACCUGGCUCAUCAUACAACAGAGGAUUGAGCAUCA
B15: chr1:205337401:205337592:-|CDS|ENSG00000162873|control|control|control (ssRNA)
RNA: GGGAGUUCUACAGUCCGACGAUCGAAGAACAAAUGGGAGAUCCUCCCUGCCAUGCCCACACCCCGCUGUGCCUGCUCCAGCAUAGUCGUCAAGAACUGCCUCCUCGCCGUGGGAGGUGUCAACCAGGGUCUGAGUGACGCAGUCAACAGAGGAUUGAGCAUCA
B16: chr1:203709306:203709407:+|CDS|ENSG00000058668|msi1|FALSE|unique (ssRNA)
RNA: GGGAGUUCUACAGUCCGACGAUCUCCAGAGAAGGAGGGAGGCCUGCCUCGGCAGGUGGGCAACAAGACCGAGUGUGCUCUGCUAGGCUUUGUCACAGAUCUGAAGCAGGAUUAUCAGGCUGUGCGUAAUGAAGUGCCCGAGGACAACAGAGGAUUGAGCAUCA
B17: chr12:26337790:26337891:-|3pUTR|ENSG00000123104|unk|total|mutant (ssRNA)
RNA: GGGAGUUCUACAGUCCGACGAUCAAGAUCUAUGCCGAAUAUAAAGGAAGCCUGAACCAAUCCUUCCACAUACUGUUAAGAUGCCGACUUGGAACAAAGCUGUUGGGACCCAGAGCAAUGAAUUUUUGAACUGAAGCUACUGGUCAACAGAGGAUUGAGCAUCA
B18: ENSG00000131370:stop:overlap|stop_codon|ENSG00000131370|stop_codon|NA|stop_codon (ssRNA)
RNA: GGGAGUUCUACAGUCCGACGAUCAGAAGUUAAAUCAGUCCACGGAUGAUAUCAACAGACGGGAGACUGAACUUGAGGUCCAGUAGGUGUUUGCAGAUCCCUUCUUAAGCCUCAACUGUGUUUCCUCGGUUUCCCCUGGCUGCACAACAGAGGAUUGAGCAUCA
B19: chr2:32508095:32508220:+|CDS|ENSG00000115760|unk|total|mutant (ssRNA)
RNA: GGGAGUUCUACAGUCCGACGAUCAGCCGAAGCCGCUUCUGCUGUCUGCCUCCGACUACAUCGUCCACGGGAUGCCAGCACAUCCGGCCUUUCACAAAUUAAAUUAUUGGGGCUCACUGCUUUUGGUACCACCUCUUCUGCAACCAACAGAGGAUUGAGCAUCA
B20: chr7:94910433:94910544:+|CDS|ENSG00000158528|unk|total|mutant (ssRNA)
RNA: GGGAGUUCUACAGUCCGACGAUCCUGGAAAAAACAGAUGGCUCAGUUGUUAAGUUGGAGUCUUCUGUUUCUGAACGAAUCCGCCGAUUUGACACUAUGUACGAUGGCCCUUCAUAUUCCAAGUUCACUGAGACUCGAAAGAUGCAACAGAGGAUUGAGCAUCA
B21: ENSG00000170522:stop:overlap|stop_codon|ENSG00000170522|stop_codon|NA|stop_codon (ssRNA)
RNA: GGGAGUUCUACAGUCCGACGAUCUCUGCCAUUUCUUCUUUGAGGCCUACAUCGGCAAAAUGAGGAAAACAACGAAAGCUGAAUAGUGUUGGAACUGAGGAGGAAGCCAUAGCUCAGGGUCAUCAAGAAAAAUAAUAGACAAAACAACAGAGGAUUGAGCAUCA
B22: chr7:74121655:74121756:+|3pUTR|ENSG00000106683|msi1|total|mutant (ssRNA)
RNA: GGGAGUUCUACAGUCCGACGAUCGCCCCUUUCCACACGCCGCUGCCCCAGCAACCCUGUUCACGCUCCACCUGUCUGGUCCACCGCUCCCUGGAGGCUGGGCCAGGAGGCAGCCUCCGAACCAUGCCCCAUAUAACGCUUGGGCAACAGAGGAUUGAGCAUCA

The other results are listed elsewhere or left out.

The target in this assay is T1, UNK ZnF1-6 (called full-length). Description: nsRBNS (natural sequence RNA bind-n-seq); RBNS binding buffer (assumed for nsRBNS): 25 mM Tris pH 7.5, 150 mM KCl, 3 mM MgCl2, 0.01% Triton X-100, 500 ug/ml BSA, 20 U/ml SUPERase-In, 4 C; UNK is unkempt and MSI1 is Musashi-1; names of the RNAs are library labels; protein concentration not given here; high values mean tight binding.
For the molecule B1, the binding signal is 0.67 enrichment R.
B2 registered a binding signal of 0.635 enrichment R.
As for B3, the binding signal came to 0.451 enrichment R.
Molecule B4 had a binding signal of 0.788 enrichment R.
Molecule B5 registered a binding signal of 0.842 enrichment R.
As to B6, the binding signal is 0.837 enrichment R.
For the molecule B7, the binding signal was 0.566 enrichment R.
In turn, B8 returned a binding signal of 0.532 enrichment R.
The result for B9 reads 0.891 enrichment R; that for B10, 0.35 enrichment R.
Consider B11, for which the binding signal stood at 0.491 enrichment R.
Regarding B12, the binding signal stood at 0.557 enrichment R.
B13 showed a binding signal of 0.805 enrichment R.
The result for B14 reads 0.545 enrichment R; that for B15, 0.869 enrichment R.
The result for B16 reads 0.724 enrichment R; that for B17, 0.436 enrichment R.
The result for B18 reads 0.85 enrichment R; that for B19, 0.577 enrichment R; that for B20, 0.403 enrichment R.
For the molecule B21, the binding signal came out at 0.591 enrichment R.
To B22 belongs 1.17 enrichment R.
